# Source: the supplement of paper PMC8728848
# This is one part of the list.
# Tests used:
# Assay in all cases: glycan array binding signal (z-score within array); higher = stronger binding
# Conditions in all cases: glycan notation: IUPAC condensed, linker removed; mutation: N288D, K313I
# Kdn(a2-3)Gal(b1-4)Glc = target: Kdn(a2-3)Gal(b1-4)Glc
# Summary of the method: (§1)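 The Consortium for Functional Glycomics database supplied 3228 glycan arrays, of which those lacking an available protein sequence were dropped. The binding signal, a within-array Z-score, was averaged across arrays of the same protein sequence and across linkers. Negative scores can be read as non-binding.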
# Kdn(a2-3)Gal(b1-4)GlcNAc = target: Kdn(a2-3)Gal(b1-4)GlcNAc
# Summary of the method: as §1
# [1] = target: Kdn(a2-3)Gal(b1-4)[Fuc(a1-3)]GlcNAc
# Summary of the method: as §1
# Kdn(a2-6)Gal(b1-4)GlcNAc = target: Kdn(a2-6)Gal(b1-4)GlcNAc
# Summary of the method: as §1
# [2] = target: Man(a1-2)Man(a1-2)Man(a1-3)Man
# Summary of the method: as §1
# [3] = target: Man(a1-2)Man(a1-2)Man(a1-6)[Man(a1-3)]Man
# Summary of the method: as §1
# Man(a1-2)Man(a1-3)Man = target: Man(a1-2)Man(a1-3)Man
# Summary of the method: as §1
# [4] = target: Man(a1-2)Man(a1-3)[Man(a1-2)Man(a1-6)]Man
# Summary of the method: as §1
# [5] = target: Man(a1-2)Man(a1-3)[Man(a1-2)Man(a1-6)]Man(a1-6)[Man(a1-2)Man(a1-2)Man(a1-3)]Man
# Summary of the method: as §1
# [6] = target: Man(a1-2)Man(a1-3)[Man(a1-2)Man(a1-6)]Man(a1-6)[Man(a1-2)Man(a1-2)Man(a1-3)]Man(b1-4)GlcNAc(b1-4)GlcNAc
# Summary of the method: as §1
# [7] = target: Man(a1-2)Man(a1-3)[Man(a1-6)]Man(a1-6)[Man(a1-2)Man(a1-3)]Man(b1-4)GlcNAc(b1-4)GlcNAc
# Summary of the method: as §1
# [8] = target: Man(a1-2)Man(a1-6)[Man(a1-3)]Man(a1-6)[Man(a1-2)Man(a1-2)Man(a1-3)]Man
# Summary of the method: as §1
# [9] = target: Man(a1-2)Man(a1-6)[Man(a1-3)]Man(a1-6)[Man(a1-2)Man(a1-2)Man(a1-3)]Man(b1-4)GlcNAc(b1-4)GlcNAc
# Summary of the method: as §1
# Man(a1-3)[Man(a1-6)]Man = target: Man(a1-3)[Man(a1-6)]Man
# Summary of the method: as §1
# [10] = target: Man(a1-3)[Man(a1-6)]Man(a1-6)[Man(a1-2)Man(a1-3)]Man(b1-4)GlcNAc(b1-4)GlcNAc
# Summary of the method: as §1
# [11] = target: Man(a1-3)[Man(a1-6)]Man(a1-6)[Man(a1-3)]Man
# Summary of the method: as §1
# [12] = target: Man(a1-3)[Man(a1-6)]Man(a1-6)[Man(a1-3)]Man(b1-4)GlcNAc(b1-4)GlcNAc
# Summary of the method: as §1
# [13] = target: Man(a1-3)[Man(a1-6)]Man(b1-4)GlcNAc(b1-4)GlcNAc
# Summary of the method: as §1
# [14] = target: Man(a1-3)[Man(a1-6)]Man(b1-4)GlcNAc(b1-4)[Fuc(a1-6)]GlcNAc
# Summary of the method: as §1
# Man(a1-6)Man = target: Man(a1-6)Man
# Summary of the method: as §1
# Man(b1-4)GlcNAc = target: Man(b1-4)GlcNAc
# Summary of the method: as §1
# MurNAc(b1-4)GlcNAc = target: MurNAc(b1-4)GlcNAc
# Summary of the method: as §1
# Neu5Ac(a2-3)Gal = target: Neu5Ac(a2-3)Gal
# Summary of the method: as §1
# [15] = target: Neu5Ac(a2-3)Gal(b1-3)GalNAc
# Summary of the method: as §1
# [16] = target: Neu5Ac(a2-3)Gal(b1-3)GalNAc(b1-3)Gal(a1-4)Gal(b1-4)Glc
# Summary of the method: as §1
# [17] = target: Neu5Ac(a2-3)Gal(b1-3)GalNAc(b1-4)[Neu5Ac(a2-3)]Gal(b1-4)Glc
# Summary of the method: as §1
# [18] = target: Neu5Ac(a2-3)Gal(b1-3)GalNAc(b1-4)[Neu5Ac(a2-8)Neu5Ac(a2-3)]Gal(b1-4)Glc
# Summary of the method: as §1
# [19] = target: Neu5Ac(a2-3)Gal(b1-3)GalNAc6S
# Summary of the method: as §1
# [20] = target: Neu5Ac(a2-3)Gal(b1-3)GlcNAc
# Summary of the method: as §1
# [21] = target: Neu5Ac(a2-3)Gal(b1-3)GlcNAc(b1-2)Man
# Summary of the method: as §1
# [22] = target: Neu5Ac(a2-3)Gal(b1-3)GlcNAc(b1-2)Man(a1-3)[GlcNAc(b1-4)][Neu5Ac(a2-3)Gal(b1-3)GlcNAc(b1-2)Man(a1-6)]Man(b1-4)GlcNAc(b1-4)GlcNAc
# Summary of the method: as §1
# [23] = target: Neu5Ac(a2-3)Gal(b1-3)GlcNAc(b1-2)Man(a1-3)[Neu5Ac(a2-3)Gal(b1-3)GlcNAc(b1-2)Man(a1-6)]Man(b1-4)GlcNAc(b1-4)GlcNAc
# Summary of the method: as §1
# [24] = target: Neu5Ac(a2-3)Gal(b1-3)GlcNAc(b1-3)Gal(b1-3)GlcNAc
# Summary of the method: as §1
# [25] = target: Neu5Ac(a2-3)Gal(b1-3)GlcNAc(b1-3)Gal(b1-4)GlcNAc
# Summary of the method: as §1
# [26] = target: Neu5Ac(a2-3)Gal(b1-3)GlcNAc(b1-3)GalNAc
# Summary of the method: as §1
# [27] = target: Neu5Ac(a2-3)Gal(b1-3)GlcNAc(b1-4)Gal(b1-4)Glc
# Summary of the method: as §1
# [28] = target: Neu5Ac(a2-3)Gal(b1-3)GlcNAc(b1-6)GalNAc
# Summary of the method: as §1
# [29] = target: Neu5Ac(a2-3)Gal(b1-3)GlcNAc6S
# Summary of the method: as §1
# [30] = target: Neu5Ac(a2-3)Gal(b1-3)[Fuc(a1-4)]GlcNAc
# Summary of the method: as §1
# [31] = target: Neu5Ac(a2-3)Gal(b1-3)[Fuc(a1-4)]GlcNAc(b1-3)Gal(b1-3)[Fuc(a1-4)]GlcNAc
# Summary of the method: as §1
# [32] = target: Neu5Ac(a2-3)Gal(b1-3)[Fuc(a1-4)]GlcNAc(b1-3)Gal(b1-4)[Fuc(a1-3)]GlcNAc
# Summary of the method: as §1
# [33] = target: Neu5Ac(a2-3)Gal(b1-3)[GlcNAc(b1-6)]GalNAc
# Summary of the method: as §1
# [34] = target: Neu5Ac(a2-3)Gal(b1-3)[Neu5Ac(a2-6)]GalNAc
# Summary of the method: as §1
# [35] = target: Neu5Ac(a2-3)Gal(b1-3)[Neu5Ac(a2-6)]GlcNAc(b1-3)[Fuc(a1-3)[Gal(b1-4)]GlcNAc(b1-6)]Gal(b1-4)Glc
# Summary of the method: as §1
# [36] = target: Neu5Ac(a2-3)Gal(b1-3)]Neu5Ac(a2-3)Gal(b1-4)]GlcNAc
# Summary of the method: as §1
# Neu5Ac(a2-3)Gal(b1-4)Glc = target: Neu5Ac(a2-3)Gal(b1-4)Glc
# Summary of the method: as §1
# [37] = target: Neu5Ac(a2-3)Gal(b1-4)GlcNAc
# Summary of the method: as §1
# [38] = target: Neu5Ac(a2-3)Gal(b1-4)GlcNAc(b1-2)Man
# Summary of the method: as §1
# [39] = target: Neu5Ac(a2-3)Gal(b1-4)GlcNAc(b1-2)Man(a1-3)[GlcNAc(b1-4)][Neu5Ac(a2-3)Gal(b1-4)GlcNAc(b1-2)Man(a1-6)]Man(b1-4)GlcNAc(b1-4)GlcNAc
# Summary of the method: as §1
# [40] = target: Neu5Ac(a2-3)Gal(b1-4)GlcNAc(b1-2)Man(a1-3)[Neu5Ac(a2-3)Gal(b1-4)GlcNAc(b1-2)Man(a1-6)]Man(b1-4)GlcNAc(b1-4)GlcNAc
# Summary of the method: as §1
# [41] = target: Neu5Ac(a2-3)Gal(b1-4)GlcNAc(b1-2)Man(a1-3)[Neu5Ac(a2-3)Gal(b1-4)GlcNAc(b1-2)Man(a1-6)]Man(b1-4)GlcNAc(b1-4)[Fuc(a1-6)]GlcNAc
# Summary of the method: as §1
# [42] = target: Neu5Ac(a2-3)Gal(b1-4)GlcNAc(b1-2)Man(a1-3)[Neu5Ac(a2-6)Gal(b1-4)GlcNAc(b1-2)Man(a1-6)]Man(b1-4)GlcNAc(b1-4)GlcNAc
# Summary of the method: as §1
# [43] = target: Neu5Ac(a2-3)Gal(b1-4)GlcNAc(b1-2)[Neu5Ac(a2-3)Gal(b1-4)GlcNAc(b1-4)]Man(a1-3)[GlcNAc(b1-4)][Neu5Ac(a2-3)Gal(b1-4)GlcNAc(b1-2)[Neu5Ac(a2-3)Gal(b1-4)GlcNAc(b1-6)]Man(a1-6)]Man(b1-4)GlcNAc(b1-4)GlcNAc
# Summary of the method: as §1
binder,measurement,setting,value
"Langerin (Homo sapiens), Q9UJ71 (protein) STLNAQIPELKSDLEKASALNTKIRALQGSLENMSKLLKRQNDILQVVSQGWKYFKGNFYYFSLIPKTWYSAEQFCVSRNSHLTSVTSESEQEFLYKTAGGLIYWIGLTKAGMEGDWSWVDDTPFNKVQSARFWIPGEPNDAGNNEHCGNIKAPSLQAWNDAPCDITFLFICKRPYVPSEP",glycan array binding signal (z-score),Kdn(a2-3)Gal(b1-4)Glc,-0.212
same,glycan array binding signal (z-score),Kdn(a2-3)Gal(b1-4)GlcNAc,-0.223
same,glycan array binding signal (z-score),[1],0.018
same,glycan array binding signal (z-score),Kdn(a2-6)Gal(b1-4)GlcNAc,-0.196
same,glycan array binding signal (z-score),[2],-0.036
same,glycan array binding signal (z-score),[3],1.19
same,glycan array binding signal (z-score),Man(a1-2)Man(a1-3)Man,-0.15
same,glycan array binding signal (z-score),[4],-0.254
same,glycan array binding signal (z-score),[5],0.217
same,glycan array binding signal (z-score),[6],-0.222
same,glycan array binding signal (z-score),[7],-0.028
same,glycan array binding signal (z-score),[8],-0.085
same,glycan array binding signal (z-score),[9],-0.222
same,glycan array binding signal (z-score),Man(a1-3)[Man(a1-6)]Man,-0.228
same,glycan array binding signal (z-score),[10],-0.13
same,glycan array binding signal (z-score),[11],-0.24
same,glycan array binding signal (z-score),[12],-0.197
same,glycan array binding signal (z-score),[13],-0.209
same,glycan array binding signal (z-score),[14],0.3
same,glycan array binding signal (z-score),Man(a1-6)Man,-0.105
same,glycan array binding signal (z-score),Man(b1-4)GlcNAc,-0.066
same,glycan array binding signal (z-score),MurNAc(b1-4)GlcNAc,-0.292
same,glycan array binding signal (z-score),Neu5Ac(a2-3)Gal,-0.27
same,glycan array binding signal (z-score),[15],-0.176
same,glycan array binding signal (z-score),[16],-0.143
same,glycan array binding signal (z-score),[17],-0.287
same,glycan array binding signal (z-score),[18],-0.117
same,glycan array binding signal (z-score),[19],-0.23
same,glycan array binding signal (z-score),[20],-0.204
same,glycan array binding signal (z-score),[21],-0.251
same,glycan array binding signal (z-score),[22],0.184
same,glycan array binding signal (z-score),[23],-0.145
same,glycan array binding signal (z-score),[24],-0.292
same,glycan array binding signal (z-score),[25],-0.212
same,glycan array binding signal (z-score),[26],-0.147
same,glycan array binding signal (z-score),[27],0.131
same,glycan array binding signal (z-score),[28],-0.092
same,glycan array binding signal (z-score),[29],-0.22
same,glycan array binding signal (z-score),[30],-0.217
same,glycan array binding signal (z-score),[31],-0.088
same,glycan array binding signal (z-score),[32],-0.187
same,glycan array binding signal (z-score),[33],-0.219
same,glycan array binding signal (z-score),[34],-0.106
same,glycan array binding signal (z-score),[35],-0.298
same,glycan array binding signal (z-score),[36],-0.269
same,glycan array binding signal (z-score),Neu5Ac(a2-3)Gal(b1-4)Glc,0.038
same,glycan array binding signal (z-score),[37],-0.227
same,glycan array binding signal (z-score),[38],-0.022
same,glycan array binding signal (z-score),[39],-0.299
same,glycan array binding signal (z-score),[40],-0.329
same,glycan array binding signal (z-score),[41],-0.104
same,glycan array binding signal (z-score),[42],-0.34
same,glycan array binding signal (z-score),[43],-0.156
